The campaign covered roughly 310,000 compounds. About 14,000 (4.5%) showed an effect of 50% or more. Effects have a minus sign here. This is one part of the list.
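Also: peak tail current of the secondary pulse compared with the same well before compound.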

Sequence of human ether-à-go-go-related gene (hERG) potassium channel (Q12809 whole entry, looked up): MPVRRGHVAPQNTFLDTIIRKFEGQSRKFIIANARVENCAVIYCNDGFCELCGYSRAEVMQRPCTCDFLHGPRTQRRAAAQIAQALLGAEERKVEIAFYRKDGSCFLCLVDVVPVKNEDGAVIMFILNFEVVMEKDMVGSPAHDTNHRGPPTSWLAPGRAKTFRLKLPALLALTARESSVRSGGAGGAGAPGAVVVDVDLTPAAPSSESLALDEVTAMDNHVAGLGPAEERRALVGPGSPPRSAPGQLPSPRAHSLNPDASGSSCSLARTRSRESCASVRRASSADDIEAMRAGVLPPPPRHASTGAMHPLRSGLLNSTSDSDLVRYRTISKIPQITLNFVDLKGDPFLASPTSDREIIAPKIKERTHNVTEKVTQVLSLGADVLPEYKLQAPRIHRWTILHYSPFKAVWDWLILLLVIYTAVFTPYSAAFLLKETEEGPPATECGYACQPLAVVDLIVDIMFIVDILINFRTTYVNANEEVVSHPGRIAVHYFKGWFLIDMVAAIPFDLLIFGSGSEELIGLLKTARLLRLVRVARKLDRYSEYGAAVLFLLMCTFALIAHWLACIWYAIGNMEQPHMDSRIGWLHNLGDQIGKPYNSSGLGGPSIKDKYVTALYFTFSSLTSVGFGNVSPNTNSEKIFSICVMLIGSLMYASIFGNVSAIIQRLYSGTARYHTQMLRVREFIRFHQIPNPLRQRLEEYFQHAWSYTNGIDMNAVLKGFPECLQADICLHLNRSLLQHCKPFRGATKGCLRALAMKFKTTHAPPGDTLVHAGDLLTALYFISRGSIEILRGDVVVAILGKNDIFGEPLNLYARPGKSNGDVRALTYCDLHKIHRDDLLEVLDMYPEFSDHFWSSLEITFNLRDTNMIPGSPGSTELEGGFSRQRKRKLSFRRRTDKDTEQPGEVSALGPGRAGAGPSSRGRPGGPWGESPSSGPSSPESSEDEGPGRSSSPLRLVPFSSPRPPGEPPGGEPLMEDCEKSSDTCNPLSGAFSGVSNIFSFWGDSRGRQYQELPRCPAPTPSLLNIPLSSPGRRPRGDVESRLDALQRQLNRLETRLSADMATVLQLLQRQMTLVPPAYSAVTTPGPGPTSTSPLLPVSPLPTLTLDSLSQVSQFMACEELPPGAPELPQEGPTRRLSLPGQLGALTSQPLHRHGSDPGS

The test has as its target human ether-à-go-go-related gene (hERG) potassium channel (human, UniProt Q12809). Nature of the test: primary screen, population patch clamp on CHO cells stably expressing hERG.
Regarding `O=C(O/N=C(\c1ccccc1)c1ccncc1)c1ccccc1Cl`, the “hERG current change (%, negative = inhibition) at 10uM” value is listed as 42.1%.
The same measure for `CC(C)(C)NS(=O)(=O)c1ccc(CCC(=O)Nc2ccc3c(c2)OCCO3)cc1`: 21.8%; for `CC1CC(C)(C)CC2(C1)NC(=O)N(CC(=O)Nc1ccc3[nH]c(=O)[nH]c3c1)C2=O` (stereo not drawn): -0.612%.
The same measure for `COc1ccc(N2CC(C(=O)Nc3ccc([N+](=O)[O-])cc3Br)CC2=O)cc1` (stereo not drawn): -69%; for `CN(C)C(=S)SCC(=O)NCc1ccc(F)cc1`: 13.2%.
With `Cc1cc(/C=C2\C(=N)N3N=C(CC(=O)N4CCOCC4)SC3=NC2=O)c(C)n1-c1ccccc1` the figure was 10.3%.
As for `CN(C(=O)COc1ccc(Cl)cc1Cl)C1(C)CCS(=O)(=O)C1` (stereo not drawn), the “hERG current change (%, negative = inhibition) at 10uM” value is recorded as -12.5%.
The same measure for `CCCN(CCC)c1nc2ccccc2nc1C(C#N)C(=O)OCCOC` (stereo not drawn): -16.6%; for `Cc1cc(NC(=O)CCc2ccccc2)c([N+](=O)[O-])cc1C`: -12.4%.
For the compound `O=C(C[n+]1ccccc1)Nc1ccccc1Br.[Cl-]`, the “hERG current change (%, negative = inhibition) at 10uM” value was determined as 28.1%.
The same measure for `Cc1cccc(NC(c2ccc(C)s2)c2ccc3ccc(C)nc3c2O)n1` (stereo not drawn): 11.6%; for `Cc1ccc([N+](=O)[O-])cc1NCC(=O)NN`: -1.25%; for `COc1ccc(C2(c3ccc(OC)cc3)NC(=O)N(CC(=O)NCC(F)(F)F)C2=O)cc1`: 0.0892%.
Turning to `COCc1cc(C)nc(OCC(=O)N/N=C/c2ccc(-c3cccc([N+](=O)[O-])c3)o2)c1C#N`, the “hERG current change (%, negative = inhibition) at 10uM” value is -0.736%.
Take `CN1CCCC(OC(=O)c2ccccc2Br)C1.Cl` (stereo not drawn): the “hERG current change (%, negative = inhibition) at 10uM” value amounted to 3.51%.
With `COc1ccc(C(=O)CSc2nc3c(c(=O)n(C)c(=O)n3C)n2C)cc1` the figure was 8.5%; with `CCOC(=O)Cc1cc(=O)n2[nH]c(C)c(-c3ccc(Cl)cc3)c2n1`, 3.21%.
The same measure for `Nc1nc2c3ccccc3nc(Cc3ccccc3)n2n1`: 9.19%; for `C/C(=N\NC(=O)CSc1ncccn1)c1ccc2c(c1)OCCO2`: -16.3%; for `COC(=O)c1cccc(C(=O)N2CCCC(Nc3ccc4c(c3)OCCO4)C2)c1` (stereo not drawn): 4.75%.
On to `S=C(Nc1ccc(Cl)cc1Cl)NC1CCCCC1`, for which the “hERG current change (%, negative = inhibition) at 10uM” value is given as 4.77%.
With `S=c1nc(-c2ccccc2)n(CCN2CCOCC2)c2c1CCCC2` the figure was -13.4%.
With `C=CCc1ccccc1Oc1cc(F)nc(N)n1` the figure was 14.2%; with `CCC(C)NC(=O)c1cc(Sc2nnc(C)s2)nc2ccccc12` (stereo not drawn), 0.69%.
Regarding `COc1cccc(/C=N/NC(=O)c2ccc(-c3ccccc3)cc2)c1O`, the “hERG current change (%, negative = inhibition) at 10uM” value is -3.13%.
The same measure for `O=[N+]([O-])c1cnccc1Nc1ccc(F)cc1`: -15%; for `CC(C)Cc1nc(Nc2ccc(S(=O)(=O)N3CCCC3)cc2)c2nnn(Cc3ccccc3)c2n1`: -1.18%; for `CCN(CC)S(=O)(=O)c1ccc(-c2nnc(SCc3nnc(-c4ccc(C)cc4)o3)o2)cc1`: 8.8%.
With `COc1cc2ccccc2c2c1CCCC2=O` the figure was -1.09%.
With `C=CCN=C(C)C1=C(O)CCC1=O` the figure was 16.5%.
Turning to `Cc1csc2nc(CNS(=O)(=O)c3ccc4c(c3)CCCC4)cn12`, the “hERG current change (%, negative = inhibition) at 10uM” value worked out at 3.66%.
With `CC(C)NC(=O)C(c1ccc(F)cc1)N(C(=O)CCC(=O)Nc1ccccn1)C1CCCC1` (stereo not drawn) the figure was 10.7%; with `COc1ccc(N(Cc2cc3ccc(C)cc3[nH]c2=O)C(=O)c2ccco2)cc1`, 14.2%.
With `CN(C)C(CNC(=O)c1ccc(S(=O)(=O)NCc2ccco2)cc1)c1ccccc1` (stereo not drawn) the figure was 19%; with `CCn1c(SCc2ccc(C)cc2)nnc1C1CCN(S(=O)(=O)c2ccc(OC)cc2)CC1`, -64.5%.
With `CC1CCCCC12NC(=O)N(CC(=O)Nc1ccc3c(c1)OCCCO3)C2=O` (stereo not drawn) the figure was -9.5%.
Regarding `O=C(/C=C/c1c(F)cccc1Cl)N1CCc2ccccc2C1`, the “hERG current change (%, negative = inhibition) at 10uM” value amounted to 4.99%.
The same measure for `Cc1nn(-c2ccccc2)c(C)c1NC(=O)COC(=O)Cc1cccc(C(F)(F)F)c1`: -6.53%.
With `Cc1[nH]n(C2=NCCS2)c(=O)c1N=Nc1ccccc1` the figure was -27.8%; with `COc1ccc([N+](=O)[O-])cc1NC(=O)c1ccc(CN(c2ccc(C)c(C)c2)S(C)(=O)=O)cc1`, 10.7%; with `Cc1nn(Cc2ccccc2)c(C)c1NC(=O)CSc1nnc(-c2cc(Cl)ccc2O)n1C`, -12.4%.
For the compound `CC(=O)Nc1ccc(NC(=O)C2CC(=O)Nc3nc4ccccc4n32)cc1` (stereo not drawn), the “hERG current change (%, negative = inhibition) at 10uM” value is on record as 24.6%.
`C=CCn1c(COc2ccc(Cl)cc2)nnc1SCC(=O)N/N=C/c1ccccc1`: the “hERG current change (%, negative = inhibition) at 10uM” value is -7.71%.
With `Cc1cc(C)cc(NC(=O)C(=O)NCCc2c[nH]c3ccccc23)c1`, the “hERG current change (%, negative = inhibition) at 10uM” value is reported as 14.9%.
Take `Cc1cc(OCC(=O)Nc2ccc(CN3CCOCC3)cc2)c2c(C)c(C)c(=O)oc2c1`: the “hERG current change (%, negative = inhibition) at 10uM” value worked out at 16%.
The same measure for `COc1ccc(Cl)cc1NS(=O)(=O)c1cccc(C(=O)N2CC(C)OC(C)C2)c1` (stereo not drawn): -16.3%.
With `COc1cccc(NC(=O)CN(C)C(=O)CCCc2nc3ccccc3s2)c1` the figure was -24.1%; with `Cc1ccc(NC(=O)c2cc(-c3ccccc3)nn2-c2ccccc2)cc1`, 14.6%.
The same measure for `Cc1cc2ccccc2n1CCNC(=O)c1ccc(S(=O)(=O)N2CCCCC2)cc1`: 9.14%.
For `CC(C)(C)c1nc2ccccc2c(=O)n1N1C(=O)c2ccccc2C1=O`, the “hERG current change (%, negative = inhibition) at 10uM” value worked out at 8.07%.
With `Cc1ccc(SCCC(=O)Nc2cccc(N(C)S(C)(=O)=O)c2)cc1` the figure was -16.3%; with `COc1ccc(CCNC(=O)Cc2c(Cl)cccc2Cl)cc1`, 45%.
With `CCc1nn(CC(=O)N2CCN(CC)CC2)c(=O)c2cc3sccc3n12` the figure was -0.134%; with `CCC[C@@H]1CCCO[C@@](C(=O)NCc2ccccn2)(C(F)(F)F)C1`, -1.97%.
